Some of the results follow.
B1: PhoQ; a variant is named by its letters at X, in order, P23837 (parent)
chain: MKKLLRLFFPLSLRVRFLLATAAVVLVLSLAYGMVALIGYSVSFDKTTFRLLRGESNLFYTLAKWENNKLHVELPENIDKQSPTMTLIYDENGQLLWAQRDVPWLMKMIQPDWLKSNGFHEIEADVNDTSLLLSGDHSIQQQLQEVREDDDDAEMTHSVAVNVYPATSRMPKLTIVVVDTIPVELKSSYMVWSWFIYVLSANLLLVIPLLWVAAWWSLRPIEALAKEVRELEEHNRELLNPATTRELTSLVRNLNRLLKSERERYDKYRTTLTDLTHSLKTPLXXLQXXLRSLRSEKMSVSDAEPVMLEQISRISQQIGYYLHRASMRGGTLLSRELHPVAPLLDNLTSALNKVYQRKGVNISLDISPEISFVGEQNDFVEVMGNVLDNACKYCLEFVEISARQTDEHLYIVVEDDGPGIPLSKREVIFDRGQRVDTLRPGQGVGLAVAREITEQYEGKIVAGESMLGGARMEVIFGRQHSAPKDE

Variants of: B1
Assay: enrichment ratio after two sorts for PhoP signalling (ratio (wild type AVST 3.29)); higher = more functional
Details: with PhoP (E. coli)

Variant	enrichment ratio
SWGH	≤ 0.25
MAIL	5.5
FADR	≤ 0.25
TWHP	≤ 0.25
IPWC	≤ 0.25
VCKM	≤ 0.25
PRFK	≤ 0.25
WPTQ	≤ 0.25
HWMV	≤ 0.25
KHYF	≤ 0.25
TTEE	≤ 0.25
IEDD	≤ 0.25
LRNT	≤ 0.25
WVNL	≤ 0.25
NMVN	≤ 0.25
VSYC	≤ 0.25
NRWW	≤ 0.25
RWCK	≤ 0.25
VDFK	≤ 0.25
PDMM	≤ 0.25
HQAG	≤ 0.25
PNTP	≤ 0.25
DSMQ	≤ 0.25
EVLP	≤ 0.25

Variant	enrichment ratio
PNFT	≤ 0.25
IFRW	≤ 0.25
ECPK	≤ 0.25
DEIT	≤ 0.25
ITID	≤ 0.25
DPGF	≤ 0.25
ANFF	≤ 0.25
SDEW	≤ 0.25
QCRN	0.978
PIVQ	≤ 0.25
LAVF	≤ 0.25
DMMP	≤ 0.25
FYFQ	≤ 0.25
NNCA	≤ 0.25
EKQW	≤ 0.25
NYFP	≤ 0.25
LKYY	≤ 0.25
MYIQ	≤ 0.25
WIGP	≤ 0.25
EAAN	≤ 0.25
YGPQ	≤ 0.25
RYEK	≤ 0.25
GRTY	≤ 0.25
SQGP	≤ 0.25

Variant	enrichment ratio
YAFP	≤ 0.25
FLEP	≤ 0.25
MFVK	≤ 0.25
QKQG	≤ 0.25
ACYQ	≤ 0.25
SHCQ	21.1
VVIG	≤ 0.25
PIHT	≤ 0.25
IMES	≤ 0.25
MNGF	3.05
ILSS	≤ 0.25
KAQQ	≤ 0.25
MPEC	≤ 0.25
WGDD	≤ 0.25
GRKH	≤ 0.25
WTPI	≤ 0.25
LGFS	≤ 0.25
KCNL	≤ 0.25
IQVV	≤ 0.25
DFEC	≤ 0.25
EMAR	≤ 0.25
YRPY	≤ 0.25
CEIH	≤ 0.25
VAWR	≤ 0.25

Variant	enrichment ratio
VGLV	12.3
NDKS	≤ 0.25
QNTV	≤ 0.25
PWFC	≤ 0.25
HDPR	≤ 0.25
YHQH	≤ 0.25
SMDN	≤ 0.25
GSSN	≤ 0.25
HRKR	≤ 0.25
GIAQ	≤ 0.25
HQNM	≤ 0.25
RMEY	≤ 0.25
FEQP	≤ 0.25
HFTC	≤ 0.25
SRRK	≤ 0.25
SAHF	≤ 0.25
VETL	≤ 0.25
SHGK	≤ 0.25
DSGM	≤ 0.25
MVTQ	≤ 0.25
SGAL	10.6
DQKS	≤ 0.25
PSKE	≤ 0.25
NGRG	≤ 0.25

Variant	enrichment ratio
DNSK	≤ 0.25
NMTY	≤ 0.25
QTTV	≤ 0.25
EMNI	≤ 0.25
GYDT	≤ 0.25
VVSN	≤ 0.25
ITFW	≤ 0.25
DLSC	≤ 0.25
WIPV	≤ 0.25
QHTA	≤ 0.25
GMFS	≤ 0.25
KSFN	≤ 0.25
ANWW	≤ 0.25
VNEL	≤ 0.25
APRH	≤ 0.25
VRPI	≤ 0.25
WNAY	≤ 0.25
EYEW	≤ 0.25
RQHC	≤ 0.25
GIGQ	≤ 0.25
RLLS	≤ 0.25
NHPL	≤ 0.25
DDPT	≤ 0.25
RGCL	≤ 0.25

Variant	enrichment ratio
VHWV	≤ 0.25
ERDC	≤ 0.25
GFVN	≤ 0.25
ACIE	≤ 0.25
FHMH	≤ 0.25
KYVQ	≤ 0.25
LKYV	≤ 0.25
WIRR	≤ 0.25
SPRK	≤ 0.25
DEKF	≤ 0.25
DNAK	≤ 0.25
AFGI	≤ 0.25
DPIM	≤ 0.25
QQTN	≤ 0.25
YQHA	≤ 0.25
DIGV	≤ 0.25
LTFW	≤ 0.25
IYYQ	≤ 0.25
SGAC	10.1
PAMC	≤ 0.25
WYCP	≤ 0.25
QEIS	≤ 0.25
DFDN	≤ 0.25
MMAP	≤ 0.25

Variant	enrichment ratio
SQAQ	2.89
LNSM	0.463
VINT	≤ 0.25
HPYG	≤ 0.25
WYKL	≤ 0.25
YGRE	≤ 0.25
MTMY	≤ 0.25
RMAH	≤ 0.25
LHTA	≤ 0.25
MRKT	≤ 0.25
LFVP	≤ 0.25
IGKG	≤ 0.25
GTMW	≤ 0.25
APYK	≤ 0.25
SREH	≤ 0.25
QGCC	≤ 0.25
RHFG	≤ 0.25
LLHK	≤ 0.25
SLRL	≤ 0.25
FIYL	≤ 0.25
FSHD	≤ 0.25
IPLR	≤ 0.25
LIWH	1.3
SNPG	≤ 0.25

Variant	enrichment ratio
YNKQ	≤ 0.25
GVTL	8.09
YRER	≤ 0.25
DPRS	≤ 0.25
LFES	≤ 0.25
DGLE	≤ 0.25
MLIF	≤ 0.25
NTNY	≤ 0.25
TAPY	≤ 0.25
YMTF	≤ 0.25
FLHS	≤ 0.25
LHRA	≤ 0.25
TDSQ	5.71
CLVG	≤ 0.25
SYAS	≤ 0.25
CVLA	≤ 0.25
VMWG	≤ 0.25
DYAD	≤ 0.25
STVP	≤ 0.25
AGIF	7.16
VGGT	≤ 0.25
QFIG	≤ 0.25
IWSF	≤ 0.25
ASQQ	4.99

Variant	enrichment ratio
EMSK	≤ 0.25
QKHV	≤ 0.25
IIWM	≤ 0.25
GSCW	≤ 0.25
KKNG	≤ 0.25
GPHR	≤ 0.25
QGKS	≤ 0.25
IGVF	0.718
VPRY	≤ 0.25
VRTW	0.299
DKEF	≤ 0.25
RTDP	≤ 0.25
ENDC	≤ 0.25
FAGA	≤ 0.25
RYDA	≤ 0.25
QIPR	≤ 0.25
IAYV	≤ 0.25
HNLR	≤ 0.25
RWIR	≤ 0.25
TICQ	6.36
QFHY	≤ 0.25
GFDV	≤ 0.25
YTFT	≤ 0.25
DGYF	≤ 0.25

Variant	enrichment ratio
HTGL	1.52
GEST	16.9
AQLT	8.16
YFSH	≤ 0.25
IQQH	≤ 0.25
YMLT	≤ 0.25
YRRM	≤ 0.25
FAQH	≤ 0.25
FKIM	≤ 0.25
GNWW	≤ 0.25
TFSM	4.91
FSVV	8.92
VCCF	≤ 0.25
SCKC	≤ 0.25
RTVD	≤ 0.25
KCTI	≤ 0.25
MYYM	≤ 0.25
VQSM	≤ 0.25
KTFR	≤ 0.25
PTCM	≤ 0.25
WMPV	≤ 0.25
DQNI	≤ 0.25
INPR	≤ 0.25
EAVL	≤ 0.25

Variant	enrichment ratio
LFEQ	≤ 0.25
LCSM	≤ 0.25
QFQA	≤ 0.25
QNYQ	≤ 0.25
WCYA	≤ 0.25
LMAM	≤ 0.25
HHVY	≤ 0.25
DHGC	≤ 0.25
FPYE	≤ 0.25
AYVN	≤ 0.25
WKTC	≤ 0.25
PIVN	≤ 0.25
RFSM	≤ 0.25
SSLA	7.43
VPHR	≤ 0.25
NYPK	≤ 0.25
TSMG	13
LPMC	≤ 0.25
FHYQ	≤ 0.25
KHVC	≤ 0.25
KSLS	≤ 0.25
WSNV	≤ 0.25
HDVT	≤ 0.25
LGTK	≤ 0.25

Variant	enrichment ratio
EITP	≤ 0.25
PTHD	≤ 0.25
HNRE	≤ 0.25
TQRS	≤ 0.25
GLCK	≤ 0.25
MYHW	≤ 0.25
NYSY	≤ 0.25
GITE	≤ 0.25
VIWI	≤ 0.25
APEN	≤ 0.25
WNKF	≤ 0.25
SELQ	27.9
QIFS	≤ 0.25
AVSH	12.4
KDHH	≤ 0.25
FHCS	≤ 0.25
WRKS	≤ 0.25
HFIG	≤ 0.25
STEE	≤ 0.25
QKVY	≤ 0.25
LHRH	≤ 0.25
HMRQ	≤ 0.25
HCDY	≤ 0.25
GVRV	≤ 0.25

Variant	enrichment ratio
VCAY	≤ 0.25
LEEA	≤ 0.25
EDPG	≤ 0.25
QEHR	≤ 0.25
WKAS	≤ 0.25
ASQC	≤ 0.25
LVIS	≤ 0.25
NFPW	≤ 0.25
ANRM	≤ 0.25
TCIM	0.447
HESW	≤ 0.25
KESH	≤ 0.25
IHMI	≤ 0.25
GIKG	≤ 0.25
SGFH	≤ 0.25
KKRL	≤ 0.25
PKDT	≤ 0.25
FMSN	≤ 0.25

From a collection of fitness landscapes (doi:10.1126/science.1257360)
